Reference: the supplement of paper PMC12632987
Whole data set: some 2,300 sequences, median “median log2 fold change of GCK-ALFA target abundance (FLAG IP / Myc IP barcode read proportion)” near 0.095, cut for the lowest 2% near -0.47. Some of the results follow.

B1: LC3A_free_39_2265 (protein)
chain: SAAAKAAALAKLKELAAKASPKVKAAINALADRIKDNLEALEKVTKLLEEALKKGPKVVDIFGQIAQDAVERIDAGTPVEEAIAELEKLSTAAIEIEEID
B2: LC3A_128_227 (protein)
chain: MEKLEEALKNLKRALEDLEKIAKTEEAKKLLKEAKKLLKEIEKLLKEGAPLEEIKKKLKEALKVAKELIKLLKEKGVEDTTLLNAAEIDLANAEEELDEI
B3: LC3A_3_1528 (protein)
chain: FEEIREEVIRLLKEAGADEETIEKAEEALDILEERGYEKAAKVFLEEVKRLAGISPETLAEFVEEVLELLKTKDLDEETLSKEIKEIARTAESAAEIEEL
B4: LC3A_free_8_2441 (protein)
chain: SNQELVDAALKLLDELEEEIEKKAKELGLDETDIGLLLLEVGSAISEVISLSDASPEEILKATKEDLEEIIKLAEEINKELAKIVKEKAEKILKELEKLL
B5: LC3A_28_802 (protein)
chain: SATRESADAARAEAVRKIAAGEEVVVTIEVAEDATQEDIDYVAETIREMARLAKEAGIPKLYVVVDSPDNQEIIDAISKTEDEMRKEGLPVDVIIAIEEP
B6: LC3A_28_649 (protein)
chain: MSIEEQLEEALERAREARERGEPAVITLTVDGSATQEDIEKIIETMEEIAEILADIPGSAIIIDVTGGVPQEFIDKLAEKGEEIEKKYPNVTVILALDEE
B7: LC3A_3_1557 (protein)
chain: MEEIREETLEELREAGKSEEVLEAARRAFDALIERGYEEALKTLAEETRKLINLPDELLLDFFEEVLETIETEDLNEEELIEKIKEIARTTLNESEIIEL
B8: LC3A_16_525 (protein)
chain: PAELEAQLAWLQALYAALETSLDAALALARQHDPALAAKIEAAKADPSKLAEVYKAIAAAAKALAAQFKAAGKEELAATAQNIADAAETDAELAELRNEE
B9: LC3A_28_931 (protein)
chain: MTVEEIKAAIRATADAAIAAGEDALIEVEIGPDTTVEEAKEIMDVLEEEAARLAAAGLKVDVVIDLDDVSQEVLDTIMERADAIEAAYPRVNVIIALDEK
B10: LC3A_3_1803 (protein)
chain: MEEKLEELLKLLREAGKSEETIEAVREALELLIERGYEEAFETFIEEMRKLVDLPDELLLDLAERVLEYLKTNDASEEEVKEFIKEEARLTRLEGEIIEL
B11: LC3A_3_1349 (protein)
chain: MEELIEELVERLREAGFSEEVVEAARRLLEALAELGHEEAMERVVEVLLEHKDAPEELIVEALEAATREVEENPDLTEEEVEELVKLLEAELEIEPLDEE
B12: LC3A_3_1821 (protein)
chain: MEEEIEETLRLLREAGWSEEALEAVRAAVEALLERGYEEAARTLIELMRRLRDLPSERILALARDVLELIETSDDSEEEMRERIVEIARTHEHEAEIIEL
B13: LC3A_free_46_2421 (protein)
chain: MTLEIDIDFIAKTKETAEAVSEEIVELLKELAEKHGVEVEIEVDIEKLEDGTYYVDIDATITGVTEEQAKQIEDEITSKVEEIFEKYPEVLGALISSELK
B14: LC3A_28_1209 (protein)
chain: SAAEAAIAALRAQVDAAIAAGEPETIVVTIPATVTVEEARAIMAAVEEEAARASGIPGTAIVVDLEEGVSEEVRRVVGERADAIEARYPNVTVIIALAEE
B15: LC3A_45_1934 (protein)
chain: MYLATVDILVPKELAEEALELVKEKGEELEEKYGDKVEVDFETLEKSYEATKNEEEVYLEVNIYADDKQTALDAADELVDYLEERLNGQVSAIISIEELP
B16: LC3A_28_922 (protein)
chain: MTKEEIIKKIREIAEEAIEKGEDAFIEVEIDSSHTKEEAEEIMDEIEREVKRLSEAGLKVDILITLDNVSQEVLDVVTDRAEEIEEKYPNVNVVIALDEE
B17: LC3A_free_39_2213 (protein)
chain: SEEELEELLKKVAEESGLDYEYIKKKIEEIQKVAGLSLEQMKKIVEAILEAVKEGANAEEILERILALAKELKAAGKSPEEIAKALLEEVEDYRNLIPLD
B18: LC3A_free_46_2333 (protein)
chain: TLVEVEVEVLAENRETLEAFAADTEARIKERFAAAGIDAEVEVELEWAEDGKTALLKVKVTIKDPNADPQEVANMVVDAIDESAEKHGLSYIISIDIKEL
B19: LC3A_3_1433 (protein)
chain: SEELLEEAERVLEEAGFSPEARAAVLELVRLALEAGAEEEVRELIEVLKKAKNVPSERVLEAAEEALRRIREEGVPVEEAVREFIEELRVLELEEEIEEL

Molecular target: MAP1LC3A, Q9H492
Assay: median log2 fold change of GCK-ALFA target abundance (FLAG IP / Myc IP barcode read proportion) (log2 ratio); each designed protein is fused to an ALFA-tag nanobody in HEK293 cells to bring the named protein to FLAG-tagged glucokinase (GCK); Myc marks an untargeted standard; higher = target protein stabilised (more abundant)
Conditions: target protein: 3xFLAG-MCP-GCK-ALFA reporter; HEK293 landing pad (RPLP)
In short: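 An ALFA-nanobody-fused binder library was recombined into HEK293 landing-pad cells and induced with 2 μg mL^−1 doxycycline. Cells were transfected with a plasmid expressing a FLAG-tagged target and a Myc-tagged standard. After 48 h, lysates underwent anti-FLAG and anti-Myc immunoprecipitation, and circular RNA barcodes were reverse transcribed, amplified and sequenced. Target abundance is the per-binder median log2 ratio of FLAG to Myc barcode read proportions. Barcodes needed ≥10^−7 proportion in both replicates, binders ≥3 barcodes per replicate, and a 10^−6 pseudocount was added; the two replicates were pooled.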

Binder | median log2 fold change
B1 | 0.279
B2 | 0.392
B3 | 0.204
B4 | 0.0457
B5 | -0.127
B6 | 0.212
B7 | 0.107
B8 | 0.204
B9 | -0.315
B10 | 0.0289
B11 | 0.208
B12 | 0.262
B13 | -0.00898
B14 | 0.194
B15 | -0.402
B16 | 0.0501
B17 | 0.203
B18 | 0.0994
B19 | 0.251
